Results taken from PubChem BioAssay AID1508623 (National Center for Advancing Translational Sciences (NCATS), 2021).
Hit rate of the full screen: of about 48,000 compounds, about 450 (0.94%) were called active. Another 19% or so got no clear call; they are omitted. Calls come from the whole dose curve; as a rule, active = well fitted inhibition curve with a large enough effect; inconclusive = small, poorly fitted or top-dose-only effect; inactive = no such curve, though single readings can be large or run the other way. This is one part of the list.

experiment: Primary qHTS for Identification of Small Molecule Inhibitors of Huntingtin Promoter Activity; details: HEK293 HTT promoter firefly luciferase reporter (activity 0% = vehicle and -100% = no light), 24 h; series mostly up to 57.5 µM; activity change, negative = inhibition: at the top concentration; note: nearly all actives have a fitted effect of over 50% in size
In short: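 HEK293 luciferase promoter-reporter cells (2,500/well) plated 24 h, then compounds added at up to 57.5 uM final for 24 h at 37 °C. Firefly luminescence by Dual-Glo, normalized to vehicle (0%) and zero RLU (-100%).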
Potency is the fitted concentration of half-maximal effect.

Activity change, negative = inhibition, inactive:
C=Cc1ccc(CSc2nc(-c3ccc(Cl)cc3)nc3c2Cc2c(CO)cnc(C)c2O3)cc1 -17.2%, COc1cc(Cl)c(C)cc1NC(=O)CSCc1nc(-c2ccc(OC)c(OC)c2)no1 -17.9%, Cc1ccc(C)c(Cn2cc(CCC(=O)NC3CCCCC3)c3ccccc32)c1 -17.7%, Cc1cccc(C)c1NC(=O)C1CCN(S(=O)(=O)c2cccc3nsnc23)CC1 -5.43%, Cc1ccc(NC(=O)Cn2ccn(Cc3ccc(Cl)cc3)c(=O)c2=O)cc1C -0.612%, COc1ccc(-c2nc(SCC(=O)NC3CCCC3)c(-c3ccccc3)[nH]2)cc1OC -3.85%, COc1ccc(OC)c(Nc2cc(C(=O)NCc3ccccc3)c3ccccc3n2)c1 -21.6%, Cc1ccc(-n2ncc3c(Nc4ccc5c(c4)OCCO5)ncnc32)cc1C -9.05%, CCOc1ccccc1C(=O)N1CCc2cc(OC)c(OC)cc2C1COc1ccc2c(C)cc(=O)oc2c1 (configuration not stated) -17.3%, Cc1ccc(OCCSc2nc3ccccc3n2CCC(=O)O)cc1C 2.18%, CCOc1ccc(NC(=O)NC(CC)Cn2nnc3ccccc3c2=O)cc1 (configuration not stated) -6.84%, CCN1CCN(C(c2ccc(Cl)cc2)c2c(O)cc(C)n(CCOC)c2=O)CC1 (configuration not stated) -10.4%, Cc1nc2ncnn2c(C)c1CCC(=O)NCc1ccc(Cl)cc1 -7.08%, O=C(CSc1ncc(S(=O)(=O)c2ccc(Br)cc2)c(=O)[nH]1)NCc1ccccc1Cl -15.5%, COc1ccc(-c2cc(C(=O)Oc3ccc(Cl)cc3)c3ccccc3n2)cc1 26.5%, CCCCn1cnc2cc(NC(=O)c3cc(OC)c(OC)c(OC)c3)ccc21 -10.3%, CCC(=O)N1CCc2cc(S(=O)(=O)NC(Cc3ccccc3)C(=O)Nc3ccc(Cl)cc3)ccc21 (configuration not stated) -28.5%, CCCC(=O)Nc1c(C(=O)N2CCN(c3ccccc3)CC2)oc2ccccc12 -24.8%, CCc1ccccc1NC(=O)C1=CC(c2ccc3c(c2)OCO3)=NS(=O)(=O)N1C -16.6%, COc1ccccc1C(=O)CC1(O)C(=O)N(CC(N)=O)c2ccccc21 (configuration not stated) 3.66%, CCOc1ccccc1NC(=O)Cn1c(=O)n(Cc2ccco2)c(=O)c2cccnc21 -11%, CC(C)(C)OC(=O)N1CCC(c2c(C(=O)O)cnn2-c2ccc(F)cc2F)CC1 6.97%, Fc1ccc(-c2nnc(CN3CCN(c4ccccn4)CC3)o2)cc1 -11.6%, CCc1ccccc1N(C)C(=O)c1cc2c(s1)-c1c(C)cccc1OC2 -15.8%, Cc1ccc(Cn2c(C)c(CNCc3ccccc3F)c(C(=O)O)c2C)cc1 -12.4%, O=C(Cn1ncc2c3ccccc3n(Cc3ccccc3)c2c1=O)NCc1ccccc1 17.9%, COc1cc(C2C(C(=O)Nc3ccccc3)=C(C)Nc3nc(SCC(=O)c4ccc(C)cc4)nn32)ccc1O (configuration not stated) 9.76%, CCC[C@H](N[C@@H](C)C(=O)N1[C@H](C(=O)O)C[C@@H]2CCCC[C@@H]21)C(=O)OCC 8.76%, CCc1ccc(S(=O)(=O)c2nnn3c2nc(N2CCN(CC)CC2)c2sccc23)cc1 2.06%, Cc1ccc(NC(=O)CSc2nc3ccc(NC(=O)c4cccc(Cl)c4)cc3s2)c(C)c1 -7.91%, COc1ccccc1C(=O)Nc1ccc(-c2nc3cc(C)cc(C)c3o2)cc1 6.21%, Cc1ccc(CN(Cc2cccn2-c2nnc(N3CCCC3=O)s2)C(=O)Nc2cc(C)cc(C)c2)cc1 -34.1%, Cc1nc2sc(C)c(C)n2c(=O)c1S(=O)(=O)NCCc1ccc(Cl)cc1 -7.29%, COc1cccc(CN2C(=O)C3(SCC(=O)N3c3ccc(F)cc3)c3ccccc32)c1 (configuration not stated) -40.3%, COc1ccc(-c2nc3c(c(SCC(=O)Nc4cc(C)cc(C)c4)n2)Cc2c(CO)cnc(C)c2O3)cc1 5.56%, Cc1ccc(CN(Cc2ccco2)C(=O)c2ccccc2Cl)o1 -14.3%, O=C(NCc1cccc(Cl)c1)c1ccc2c(c1)nc1n2CCOC1 9.13%, CC(=O)c1ccc(NC(=O)c2cn(C)c(=O)c3ccccc23)cc1 9.49%, O=C(NC1CC(=O)N(c2ccccc2)C1)c1cccs1 (configuration not stated) -20.5%, Cc1cccc(C(=O)Nc2nc3c(s2)CCCC3)c1 -4.01%, CCOC(=O)N1CCc2c(sc3c2c(=O)n(CCc2ccccc2)c(=O)n3Cc2ccc(C)cc2C)C1 -4.17%, COc1ccc(NS(=O)(=O)c2ccc(N)cc2)nn1 9.46%, COc1ccc(-c2nc(CCNC(=O)Cc3ccc(F)cc3)cs2)cc1 -23.9%, Nc1ccc(C(=O)NCC(=O)O)cc1 1.15%, CSc1ccc(CCNC(=O)c2ccc3c(c2)nc2n3CCC(C)C2)cc1 (configuration not stated) 1.06%, CCOCCc1nn2c(=O)cc(COC(=O)c3ccccc3NC(=O)c3cccs3)nc2s1 0%, CCc1ccccc1NC(=O)N1CC(CC)Oc2ccc(Cl)cc21 (configuration not stated) -20.3%, COc1ccc(N2CCN(C(=O)c3c(C)nn(-c4ccc(F)cc4)c3-n3cccc3)CC2)cc1 -22.5%, COc1ccc(NC(=O)CSc2nc3ccccc3n2CC(=O)NCc2ccc(F)cc2)cc1 -26.3%, CCCCSCCCNC(=O)c1cn(CC)c2ccc(S(=O)(=O)N3CCOCC3)cc2c1=O -6.79%, CCOc1ccc(NC(=O)CSc2nnc3c(C)cc4ccccc4n23)cc1 3.01%, Nc1ccc(S(=O)(=O)c2ccc(N)cc2)cc1 4.36%, COC(=O)c1ccccc1NC(=O)Cn1nc(C)c2nn(-c3ccc(Cl)cc3)c(C)c2c1=O -15.7%, OC[C@H]1O[C@@H](Oc2ccc(O)cc2)[C@H](O)[C@@H](O)[C@@H]1O 9.95%, COc1cc(NC(=O)Nc2nnc(N3CCCCC3)s2)cc(OC)c1 -15.2%, CC1CCc2nc3ccc(S(=O)(=O)N4CCC(C(=O)NCc5ccccc5Cl)CC4)cc3c(C(=O)O)c2C1 (configuration not stated) -25.8%, O=c1c2[nH]c3ccccc3c2nc(SCc2ccccc2F)n1-c1ccc(F)cc1 -13.3%, Cc1ccccc1OCC(=O)Nc1ccc(OCc2cc(=O)n3ccccc3n2)cc1 10.7%, Cc1ccc(CNC(=O)c2ccc3oc(=O)n(Cc4ccccc4)c3c2)cc1 -15.5%, COc1ccc(Cl)cc1NC(=O)C1CCCN(S(=O)(=O)c2ccc3c(c2)CCCC(=O)N3)C1 (configuration not stated) -16.7%, O=C(CSc1nc2c(c(=O)[nH]1)CN(Cc1ccc3c(c1)OCO3)CC2)Nc1cc(F)ccc1F -32.7%, CCCCOC(=O)c1ccc(NC(=O)C2(c3cccs3)CCOCC2)cc1 -21.9%, COc1ccc(NC(=O)CSc2nc(-c3ccccc3)cc(-c3cc(OC)c(OC)c(OC)c3)c2C#N)c(OC)c1 -5.52%, CC(=O)N1CCc2cc(CNS(=O)(=O)c3cccs3)ccc21 48.6%, COc1ccc(-c2nnc(SCC(=O)Nc3cccc(C)c3)s2)cc1 -10.9%, CCOc1ccccc1N(C)C(=O)c1sc2nc3n(c(=O)c2c1C)CCCC3 -5.76%, COc1ccc(NC(=O)CSc2nccn2C2CCCC2)cc1OC -37.9%, Cc1nn(CC(=O)Nc2ccc(C(C)C)cc2)c(=O)c2c(C)n(-c3ccc(Cl)cc3)nc12 -9.78%, Cc1ccc(Cn2cc(S(=O)(=O)c3ccccc3)c(=O)c3cc(F)c(N4CCOCC4)cc32)cc1 -19.1%, Cn1ccc2cc(S(=O)(=O)N3CCN(C(=O)Nc4cccc(F)c4)CC3)ccc21 -27.3%, COc1ccc(NC(=O)C(c2ccc(OC)cc2)N(C)C(=O)Cc2cccs2)cc1 (configuration not stated) -22.2%, CC(C)(Oc1ccc(Cl)cc1)C(=O)Nc1ccc(-c2nc3ncccc3o2)cc1 -0.153%, COc1ccccc1N1CCN(S(=O)(=O)CCNC(=O)c2cc(=O)c3ccccc3o2)CC1 -29.9%, COc1ccc2c(c1)c1c3n2CCN(C)C3=NCC1 -3.98%, CN(C)CCc1c[nH]c2ccc(Cn3cncn3)cc12 -8.45%, Cc1ccccc1C(=O)Nc1cccc(-c2nc3cccnc3s2)c1 -13.4%, CC(C)C(C)(C)C(C)(C)C(C)(C)S 9.65% [at 116 µM], COc1ccc(Cn2ccc3nc(C)c(C(=O)Nc4ccc(OC)c(OC)c4)cc3c2=O)cc1 -12.1%, COc1cccc(N2CCN(C(=O)CCn3nc(C)c(S(=O)(=O)N4CCCC4)c3C)CC2)c1 -6.88%, O=C(CSc1nc(=O)n(Cc2ccncc2)c2c1CCC2)Nc1ccccc1 7.43%, CCCN(CCC)C(=O)c1c[nH]c2ccc(S(=O)(=O)N(C)c3ccc(Cl)cc3)cc2c1=O -24.2%, O=c1c(S(=O)(=O)c2ccccc2)cn(Cc2ccc(F)cc2)c2cc(N3CCCC3)c(F)cc12 -17.8%, COc1cccc(CNC(=O)C2CCC(CNS(=O)(=O)c3cccs3)CC2)c1 (configuration not stated) 5.62%, CCCC(=O)N(c1ccc2oc3c(c2c1)CCCC3)S(=O)(=O)c1ccc(CC)cc1 -6.85%, Cc1ccccc1NC(=O)c1ccc(NC(=O)N2CCSc3ncccc32)cc1 -7.4%, COc1cccc(NC(=O)c2sc(-n3nc(C)c(Cc4ccccc4Cl)c3C)nc2C)c1 -6.19%, CC1CCN(S(=O)(=O)c2ccc3c(c2)N(CC(=O)NCc2ccccc2Cl)C(=O)CO3)CC1 -14.8%, COc1ccc(OC)c(-n2c(=O)[nH]c3cc(C(=O)NCCc4ccc(OC)c(OC)c4)ccc3c2=O)c1 -13.3%, COc1ccc(NCc2nc3ccccc3n2CCOc2ccccc2C)cc1 -18%, COc1ccc(C=Cc2cc(OC)c(OC)c(OC)c2)cc1NC(=O)[C@H](N)CO -26%, COCCn1c(C)cc(O)c(C(c2ccccc2)N2CCN(c3ccc(F)cc3)CC2)c1=O (configuration not stated) -6.98%, Cc1ccc(N(C)C(=O)Cn2nc(Cc3ccncc3)c3ccccc3c2=O)cc1C -1.57%, O=C(Nc1ccc(F)cc1)c1ccc(-n2cnc3cccnc32)cc1 -10.4%, O=C(NCCc1ccc(Cl)cc1)c1ccc(CS(=O)(=O)Cc2ccc(F)cc2)o1 -0.592%, COC(=O)c1c(SC)nc2ccccc2c1OCc1cccc(C)c1 -16.4%, CCC(CC)C(=O)Nc1cccc(-c2nc3cccnc3s2)c1 -5.62%

Potency, active:
Cc1nn(-c2ccccc2)c2c1N(CCCC(=O)NCc1ccc(OC(C)C)cc1)C(=O)CS2 14.1 µM
